Measurements as given in PubChem BioAssay AID1768 (National Center for Advancing Translational Sciences (NCATS), 2009).
Values joined by “and” are separate entries in the source; they are usually repeats but may differ in a detail not shown here. Identical values can stand only once. The whole screen tested about 270,000 compounds, of which about 620 (0.23%) were called active. This list was built around the results that the source calls inconclusive (neither active nor inactive); the mix of calls is not that of the screen. The call rests on the fitted dose curve; in most records, active means well fitted inhibition curve with a large enough effect in the polarisation, with a control signal flat (not every such curve was filed as active); inconclusive means small, poorly fitted or top-dose-only effect, or effect the other way, or a change in a side signal; inactive means no such curve, though single readings can be large or run the other way; the % refers to the polarisation. Potencies of inconclusive entries are doubtful fits and often do not repeat. A note “side channel” means that the fit belongs to a control or component signal, not to the main read-out.

Target: Menin (Homo sapiens) (UniProt O00255)
Sequence of UniProt O00255 (O00255 whole entry, looked up): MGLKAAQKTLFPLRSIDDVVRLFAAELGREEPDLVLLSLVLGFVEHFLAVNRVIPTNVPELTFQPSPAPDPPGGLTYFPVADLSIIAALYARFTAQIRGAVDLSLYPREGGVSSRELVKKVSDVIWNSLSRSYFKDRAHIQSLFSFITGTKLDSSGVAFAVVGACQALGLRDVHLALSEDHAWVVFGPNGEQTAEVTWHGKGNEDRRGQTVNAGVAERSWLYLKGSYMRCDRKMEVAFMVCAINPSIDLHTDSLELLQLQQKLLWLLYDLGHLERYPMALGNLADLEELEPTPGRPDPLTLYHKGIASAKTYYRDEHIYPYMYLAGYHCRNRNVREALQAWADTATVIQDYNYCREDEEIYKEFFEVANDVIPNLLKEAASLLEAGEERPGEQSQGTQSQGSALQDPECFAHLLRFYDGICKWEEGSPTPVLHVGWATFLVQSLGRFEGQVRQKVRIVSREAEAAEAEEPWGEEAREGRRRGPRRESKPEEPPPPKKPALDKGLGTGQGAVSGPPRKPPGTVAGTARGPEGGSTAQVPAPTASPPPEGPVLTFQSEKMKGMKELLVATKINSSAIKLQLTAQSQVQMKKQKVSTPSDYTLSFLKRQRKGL
Test: qHTS Assay for Inhibitors Targeting the Menin-MLL Interaction in MLL Related Leukemias: Competition With Texas Red Labeled MLL-derived Mutant Peptide; on FP activity change, negative = inhibition: % of control where 0% means no effect
Conditions: fluorescence polarization; FP activity change, negative = inhibition: at 61.6 µM (top of the series)
Potency means the concentration at half of the fitted maximal effect; tags describe the fitted curve by direction and shape or compound fluorescence and quenching.

Row | SMILES | Potency | FP activity change, negative = inhibition
1 | CCCCN1C(=O)/C(=c2\sc3nc(=O)c(-c4ccccc4)nn3c2=O)c2ccccc21 | inconclusive: 17.8 µM [quencher, side channel, partial curve] | 
2 | CCOC(=O)c1cc2nc(Nc3ccc(OC)cc3)sc2s1 | inconclusive: 12.6 µM [quencher, side channel, partial curve] | 
3 | O=C(CNS(=O)(=O)c1ccc(Br)s1)N1CCCC1 |  | inactive: -0.674%
4 | O=C(c1cnccn1)N1CCC2(CCCN(Cc3ccncc3)C2)CC1 |  | inactive: -4.51%
5 | Cc1ccc(S(=O)(=O)c2c[nH]c3ccc(C)cc3c2=O)cc1 | inconclusive: 35.5 µM [fluorescent, side channel, single point] | 
6 | COc1ccc(CN(C)C(=O)C23CC4CC(CC(C4)C2)C3)c(OC)c1 | inconclusive: 4.47 µM [inhibitor, full curve, poor fit] | 
7 | CC(C(=O)Nc1ccccc1F)N1CCN(C)CC1 (stereo not given) |  | inactive: -13.1%
8 | COc1ccc(C)cc1Nc1nc(N)c2cc(OC)c(OC)cc2n1 | inconclusive: 35.5 µM [quencher, side channel, single point] | 
9 | CCOc1ccc(-c2nnc(-c3ccncc3)o2)cc1OCC | inconclusive: 28.2 µM [inhibitor, partial curve] | 
10 | COc1cccc(NC(=O)Cc2cccs2)c1 | inconclusive: 0.631 µM [quencher, side channel, full curve, poor fit] | 
11 | COc1ccc(S(=O)(=O)N2CCN(C)CC2)cc1NC(=O)c1ccccc1F | inconclusive: 39.8 µM [inhibitor, single point] | 
12 | Cc1cc(Br)cc(/C=N/NC(=O)c2ccc3c(c2)OCO3)c1O | inconclusive: 1.58 µM [quencher, side channel, full curve] | 
13 | CN1CCN(C2Cc3ccccc3Sc3ccc(Cl)cc32)CC1 (stereo not given) | inconclusive: 7.08 µM [fluorescent, side channel, partial curve] | 
14 | CCOC(=O)N1CCC2(CC1)C(C#N)=C(N)OC1=C2C(=O)CC(C)(C)C1 | inconclusive: 39.8 µM [fluorescent, side channel, single point] | 
15 | CCN(c1ccccc1)S(=O)(=O)c1cc(C(=O)OC(C)C(=O)Nc2ccc3c(c2)OCCO3)ccc1C (stereo not given) | inconclusive: 39.8 µM [quencher, side channel, single point] | 
16 | COC(=O)/C=C\CCc1coc(/C=C\CNC(=O)OC)n1 |  | inactive: -17.9% [at 11.7 µM]
17 | CCN(CCCn1c(=S)[nH]c2ccc(N3CCOCC3)cc2c1=O)c1ccccc1 | inconclusive: 8.91 µM [quencher, side channel, full curve] | 
18 | CCOc1ccc(NS(=O)(=O)c2cc(NC(=O)CCC(=O)c3cccs3)ccc2Cl)cc1 | inconclusive: 28.2 µM [inhibitor, single point] | 

Row | SMILES | Potency | FP activity change, negative = inhibition
19 | CCS(=O)(=O)N1CCN(Cc2ccccc2OC)CC1 | inconclusive: 7.94 µM [inhibitor, partial curve] | 
20 | CCCNC(=O)OCC12CC3CC(CC(C3)C1)C2 | inconclusive: 7.08 µM [inhibitor, single point] | 
21 | O=C(Nc1ccc([N+](=O)[O-])cc1)C1C(c2ccccc2)=C1c1ccccc1 | inconclusive: 25.1 µM [quencher, side channel, partial curve] | 
22 | COc1cc(COc2ccc3c(C)c(CC(=O)O)c(=O)oc3c2C)cc(OC)c1OC | inconclusive: 39.8 µM [inhibitor, partial curve] | 
23 | CCC(/C=C1\Sc2ccc(OC)cc2N1CCO)=C\c1sc2ccc(OC)cc2[n+]1CCO | inconclusive: 2.82 µM [fluorescent, side channel, full curve] and inconclusive: 17.8 µM [fluorescent, side channel, partial curve] | 
24 | Cn1ncc2c(Nc3cccc(Cl)c3)nc(Nc3cccc(Cl)c3)nc21 | inconclusive: 10 µM [inhibitor, full curve] | 
25 | COc1ccccc1NC(=O)C(C)N(C)CCOc1ccccc1 (stereo not given) | inconclusive: 39.8 µM [fluorescent, side channel, single point] | 
26 | Oc1ccc(Cl)cc1-c1cc(-c2ccccc2Cl)[nH]n1 | inconclusive: 15.8 µM [quencher, side channel, partial curve] | 
27 | CC(=O)n1cc(/C=N/NC(=O)c2ccc(Cl)cc2)c2ccccc21 | inconclusive: 25.1 µM [quencher, side channel, single point] | 
28 | O=[N+]([O-])c1cc(Cl)cc(/C=N\Nc2ccccn2)c1O | inconclusive: 17.8 µM [quencher, side channel, partial curve] | 
29 | CCCC(C)C(=O)Nc1nc(C)c(-c2csc(Nc3ccc(Cl)cc3)n2)s1 (stereo not given) | inconclusive: 10 µM [quencher, side channel, partial curve] | 
30 | COc1ccccc1NC(=O)C(=O)NNC(=O)COc1ccc2ccccc2c1 | inconclusive: 22.4 µM [quencher, side channel, single point] | 
31 | CC(C)(C)[C@@H]1C=C(C(=O)NC2CC2)O[C@H](OCc2ccc(CO)cc2)C1 | inconclusive: 3.16 µM [fluorescent, side channel, partial curve, poor fit] | 
32 | N/C(=N\OC(=O)c1ccco1)c1cccc([N+](=O)[O-])c1 | inconclusive: 28.2 µM [quencher, side channel, partial curve] | 
33 | O=C1OC2(c3cc(I)c(O)c(I)c3Oc3c2cc(I)c(O)c3I)c2c(Cl)c(Cl)c(Cl)c(Cl)c21 | inconclusive: 0.708 µM [fluorescent, full curve] | 
34 | COc1ccccc1-n1c(C)c(C(=O)O)c2cc(OC)c3ccccc3c21 | inconclusive: 25.1 µM [quencher, side channel, partial curve] | 
35 | CC1=NN(c2ccc(Cl)cc2)C(=O)C1C(c1ccccc1O)c1c(C)[nH]n(-c2ccc(Cl)cc2)c1=O (stereo not given) | inconclusive: 39.8 µM [quencher, side channel, single point] | 
